Consider three molecules from patent US7105647 (WISCONSIN ALUMNI RESEARCH FOUNDATION, dated 2006).

Test [1] deals with T1, AH receptor nuclear translocator (ARNT), full length (human, UniProt P27540 1-789).
T1 construct: Full length: in vitro translated, expressed in yeast (PL574) or transfected; Endogenous ARNT in the Hep3B experiment; also called huARNT; hARNT
In words: gel shift, heterodimer on TACGTG oligonucleotide. (In general: Mobility shift assays separate free from complexed probe on a gel.)

Test [2] concerns the target T2, human aryl hydrocarbon receptor (AHR), full length (human, UniProt P35869 1-848).
T2 construct: Full length in yeast (PRSAHR) and in the Hsp90 co-IP (huAHR); also called huAHR; Ah receptor
T2 sequence (looked up): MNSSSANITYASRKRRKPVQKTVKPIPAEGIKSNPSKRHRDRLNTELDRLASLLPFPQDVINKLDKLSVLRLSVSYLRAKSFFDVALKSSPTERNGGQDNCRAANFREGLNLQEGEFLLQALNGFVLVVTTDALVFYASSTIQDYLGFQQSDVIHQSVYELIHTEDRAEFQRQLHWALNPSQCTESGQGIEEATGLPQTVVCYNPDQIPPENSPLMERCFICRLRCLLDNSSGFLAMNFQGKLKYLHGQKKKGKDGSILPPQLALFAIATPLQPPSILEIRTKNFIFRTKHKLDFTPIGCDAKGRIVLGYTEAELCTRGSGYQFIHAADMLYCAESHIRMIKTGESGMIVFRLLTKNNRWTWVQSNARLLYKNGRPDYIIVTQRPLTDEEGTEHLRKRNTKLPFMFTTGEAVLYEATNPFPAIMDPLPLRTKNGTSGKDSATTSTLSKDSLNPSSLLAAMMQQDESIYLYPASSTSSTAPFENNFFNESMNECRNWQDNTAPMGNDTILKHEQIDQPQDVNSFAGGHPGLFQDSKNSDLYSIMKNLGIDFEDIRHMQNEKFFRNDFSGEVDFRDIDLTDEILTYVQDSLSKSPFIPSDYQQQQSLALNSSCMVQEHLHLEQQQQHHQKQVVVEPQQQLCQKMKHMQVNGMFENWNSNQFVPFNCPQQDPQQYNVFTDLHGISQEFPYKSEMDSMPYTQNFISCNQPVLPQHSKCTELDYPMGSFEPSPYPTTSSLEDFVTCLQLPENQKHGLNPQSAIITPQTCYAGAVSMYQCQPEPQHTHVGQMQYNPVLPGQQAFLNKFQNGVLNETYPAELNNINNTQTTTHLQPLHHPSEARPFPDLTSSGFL
In words: yeast two-hybrid, lacZ reporter, with and without 1 µM βNF. From the text:
(§1) This plasmid was designated PL371, and subsequently was digested with NotI and XhoI, this fragment cloned into the corresponding sites of pSGBCU11. This clone was designated PL574. The LexAMOP fusion protein constructs were cotransformed with a yeast expression vector containing the full length AHR or ARNT into L40, a yeast strain containing integrated lacZ and HIS3 reporter genes. As controls, LexAAHR and LexAARNT were cotransformed with AHR and ARNT. The strength of interaction was visually characterized by X-Gal (5-bromo-4-chloro-3-indolyl-(-D-galactoside) plate assays, performed after three days growth on selective media (Bohen et al, Proc. Natl. Acad. Sci. USA 90: 11424–11428, 1993). To provide quantitation of the interaction strength, multiple colonies from yeast harboring each bHLH-PAS combination colonies were grown overnight in liquid media. Liquid cultures were grown for 5 hours, and assayed for lacZ activity using the Galacto-Light chemiluminescence reporter system (Tropix, Bedford, Mass.). To determine the effect of AHR agonists on these interactions, yeast were also grown on plates or in liquid culture with and without 1 μM βNF (Carver et al., J. Biol. Chem. 269: 30109–30112, 1994).
(§2) 2. Interaction of MOPs with the AHR and ARNT in vivo; Yeast two-hybrid experiments. […]

For test [3], the target named is T1, AH receptor nuclear translocator …. Briefly: yeast two-hybrid, Galacto-Light lacZ assay.
Excerpt: as §1, §2

The target of test [4] is T2, human aryl hydrocarbon receptor (AHR), …. Briefly: yeast two-hybrid, Galacto-Light lacZ assay, 1 µM βNF.
Excerpt: as §1, §2

In test [5] the target is T1, AH receptor nuclear translocator …. Briefly: yeast interaction trap (mating), X-Gal overlay. As for the experimental part:
Interaction Screen Against Known bHLH-PAS Proteins. LexAbHLH-PAS fusion proteins ("baits") of HIF1α, HIF2α, MOP3, MOP4, AHR, ARNT, and CLOCK were transformed into the L40 strain of yeast. The full-length ("fish") MOP3 and ARNT plasmids were transformed into the AMR70 yeast strain, and these transformants were plated onto yeast complete media plates (Kaiser et al., 1994, in *Methods in Yeast Genetics*, Cold Spring Harbor Press, Plainview, N.Y.). The L40 yeast harboring the bait constructs were replica plated onto these yeast complete media plates and mated for 8 hr at 30° C. The plates were then replica plated onto selective media and grown for an additional day at 30° C. 5-Bromo-4-chloro-3-indolyl […]-galactoside (X-Gal) overlay assays were performed to determine the relative expression of the lacZ reporter gene (Bohen and Yamamoto, 1993, PNAS 90: 11424–11428). Western blot analysis, using LexA-specific sera, was performed on extract from each transformant to confirm expression of the fusion protein (see Example 1).

The target in test [6] is T2, human aryl hydrocarbon receptor (AHR), …. In words: yeast two-hybrid, Galacto-Light lacZ assay, with vs without 1 µM βNF.
Excerpt: as §1, §2

T1 sequence (P27540 whole entry): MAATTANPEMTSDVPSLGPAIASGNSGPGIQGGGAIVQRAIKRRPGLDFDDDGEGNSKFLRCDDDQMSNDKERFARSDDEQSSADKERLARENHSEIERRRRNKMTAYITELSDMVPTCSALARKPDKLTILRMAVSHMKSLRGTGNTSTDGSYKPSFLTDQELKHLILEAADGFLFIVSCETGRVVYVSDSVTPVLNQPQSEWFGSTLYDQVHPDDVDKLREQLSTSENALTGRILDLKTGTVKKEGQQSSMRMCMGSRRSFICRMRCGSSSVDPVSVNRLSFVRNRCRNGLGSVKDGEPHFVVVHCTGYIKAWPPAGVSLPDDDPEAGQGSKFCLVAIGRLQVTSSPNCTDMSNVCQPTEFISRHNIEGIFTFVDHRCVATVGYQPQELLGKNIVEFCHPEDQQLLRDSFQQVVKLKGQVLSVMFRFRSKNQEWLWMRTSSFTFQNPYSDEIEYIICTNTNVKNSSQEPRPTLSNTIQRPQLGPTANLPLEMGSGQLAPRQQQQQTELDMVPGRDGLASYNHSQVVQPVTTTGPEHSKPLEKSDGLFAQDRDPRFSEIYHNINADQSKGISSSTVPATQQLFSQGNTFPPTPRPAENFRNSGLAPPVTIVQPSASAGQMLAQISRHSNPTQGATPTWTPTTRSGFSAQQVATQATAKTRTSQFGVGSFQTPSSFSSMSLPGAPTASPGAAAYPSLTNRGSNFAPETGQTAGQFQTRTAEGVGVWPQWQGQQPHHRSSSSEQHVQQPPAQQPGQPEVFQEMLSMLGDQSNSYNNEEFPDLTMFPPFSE

B1: MOP2 (other)
chain: MTADKEKKRSSSERRKEKSRDAARCRRSKETEVFYELAHELPLPHSVSSHLDKASIMRLAISFLRTHKLLSSVCSENESEAEADQQMDNLYLKALEGFIAVVTQDGDMIFLSENISKFMGLTQVELTGHSIFDFTHPCDHEEIRENLSLKNGSGFGKKSKDMSTERDFFMRMKCTVTNRGRTVNLKSATWKVLHCTGQVKVYNNCPPHNSLCGYKEPLLSCLIIMCEPIQHPSHMDIPLDSKTFLSRHSMDMKFTYCDDRITELIGYHPEELLGRSAYEFYHALDSENMTKSHQNLCTKGQVVSGQYRMLAKHGGYVWLETQGTVIYNPRNLQPQCIMCVNYVLSEIEKNDVVFSMDQTESLFKPHLMAMNSIFDSSGKGAVSEKSNFLFTKLKEEPEELAQLAPTPGDAIISLDFGNQNFEESSAYGKAILPPSQPWATELRSHSTQSEAGSLPAFTVPQAAAPGSTTPSATSSSSSCSTPNSPEDYYTSLDNDLKIEVIEKLFAMDTEAKDQCSTQTDFNELDLETLAPYIPMDGEGFQLSPICPEERLLAENPQSTPQHCFSAMTNIFQPLAPVAPHSPFLLDKFQQQLESKKTEPERRPMSSIFFDAGSKASLPPCCGQASTPLSSMGGRSNTQWPPDPPLHFGPTKWAVGDQRTEFLGAAPLGPPVSPPHVSTFKTRSAKGFGARGPNVLSPAMVALSNKLKLKRQLEYEKQAFQDPSGGDPPGGSTSHLMWKRMKNLRGGSCPLMPDKPLSANVPNDKLTQNSMRGLGHPLRHLPLPQPPSAISPGENSKSRFPPQCYATQYQDYSLSSAHKVSGMASRLLGPSFESYLLPELTRYDREVKVPVLGSSTLLQGGDLLRALDQAT
notes: Complete ORF, in vitro translated (PL447) or transfected; also called HIF2α; huMOP2
For B1, the binding result in test [1] is reported as “binds”.

B2: LexAMOP2 (other)
chain: MKALTARQQEVFDLIRDHISQTGMPPTRAEIAQRLGFRSPNAAEEHLKALARKGVIEIVSGASRGIRLLQEEEEGLPLVGRVAAGEPLLAQQHIEGHYQVDPSLFKPNADFLLRVSGMSMKDIGIMDGDLLAVHKTQDVRNGQVVVARIDDEVTVKRLKKQGNKVELLPENSEFKPIVVDLRQQSFTIEGLAVGVIRNGDWLMTADKEKKRSSSERRKEKSRDAARCRRSKETEVFYELAHELPLPHSVSSHLDKASIMRLAISFLRTHKLLSSVCSENESEAEADQQMDNLYLKALEGFIAVVTQDGDMIFLSENISKFMGLTQVELTGHSIFDFTHPCDHEEIRENLSLKNGSGFGKKSKDMSTERDFFMRMKCTVTNRGRTVNLKSATWKVLHCTGQVKVYNNCPPHNSLCGYKEPLLSCLIIMCEPIQHPSHMDIPLDSKTFLSRHSMDMKFTYCDDRITELIGYHPEELLGRSAYEFYHALDSENMTKSHQNLCTKGQVVSGQYRMLAKHGGYVWLETQGTVIYNPRNLQPQCIMCVNYVLSEIEKNDVVFSMDQTE
notes: range 1-202; Yeast two-hybrid bait; also called LexAbHLH-PAS fusion of HIF2α; PL857
For B2, in test [2], the binding result is listed as “no binding”. Also, the “fold above background (lacZ reporter activity)” value in test [3] stood at 28 fold.

B3: LexAARNT (other, UniProt P0A7C2 1-202, looked up)
chain: MKALTARQQEVFDLIRDHISQTGMPPTRAEIAQRLGFRSPNAAEEHLKALARKGVIEIVSGASRGIRLLQEEEEGLPLVGRVAAGEPLLAQQHIEGHYQVDPSLFKPNADFLLRVSGMSMKDIGIMDGDLLAVHKTQDVRNGQVVVARIDDEVTVKRLKKQGNKVELLPENSEFKPIVVDLRQQSFTIEGLAVGVIRNGDWLMAATTANPEMTSDVPSLGPAIASGNSGPGIQGGGAIVQRAIKRRPGLDFDDDGEGNSKFLRCDDDQMSNDKERFARSDDEQSSADKERLARENHSEIERRRRNKMTAYITELSDMVPTCSALARKPDKLTILRMAVSHMKSLRGTGNTSTDGSYKPSFLTDQELKHLILEAADGFLFIVSCETGRVVYVSDSVTPVLNQPQSEWFGSTLYDQVHPDDVDKLREQLSTSENALTGRILDLKTGTVKKEGQQSSMRMCMGSRRSFICRMRCGSSSVDPVSVNRLSFVRNRCRNGLGSVKDGEPHFVVVHCTGYIKAWPPAGVSLPDDDPEAGQGSKFCLVAIGRLQVTSSPNCTDMSNVCQPTEFISRHNIEGIFTFVDHRCVATVGYQPQELLGKNIVEFCHPEDQQLLRDSFQQVVKLKGQVLSVMFRFRSKNQEWLWMRTSSFTFQNPYSDEIEYIICTNTNVKNSSQEPRPT
notes: range 1-202;domain: bHLH-PAS domains; Yeast two-hybrid bait; also called LexAbHLH-PAS fusion of ARNT; PL701
As for B3, the “fold above background (lacZ reporter activity)” value in test [4] was determined as 14 fold. In test [5], the binding result is “no binding”. Also, the “fold over the same pair in the absence of ligand” value in test [6] was 2 fold.
